From PubChem BioAssay (NCI)
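Five compound concentrations were applied to cells in 96-well plates for 48 hours; endpoints were derived by simple linear interpolation of the resulting dose-response curve. The concentration for 50% growth inhibition is given as GI50.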 Not every entry of the source has a single result; some have several. The other results are left out here. The source may hold further records. For some assays here: Records of one sample usually come from different ranges of test concentrations, not given here; a value can be the end of its range.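 Definition used: TGI = concentration required for complete inhibition of growth.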 For some assays here: The records of an entry repeat one measurement (runs, samples, wells, individuals or studies). Records carry a tag for their origin. A, B and so on number the origins entry by entry.

Assays:
Assay in all cases: growth of human tumour cells (NCI), 48 h
[1] = tested on: NCI-H23 lung
[2] = tested on: OVCAR-4 ovarian
[3] = tested on: SR leukemia
[4] = tested on: SF-268 CNS
[5] = tested on: SW-620 colon
[6] = tested on: HT29 colon
[7] = tested on: DU-145 prostate
[8] = tested on: TK-10 renal
[9] = tested on: SNB-19 CNS
[10] = tested on: UACC-257 melanoma
[11] = tested on: M14 melanoma
[12] = tested on: UACC-62 melanoma
[13] = tested on: NCI-H522 lung
[14] = tested on: A549 NSCLC
[15] = tested on: PC-3 prostate
[16] = tested on: NCI-H460 lung
[17] = tested on: SK-MEL-5 melanoma
[18] = tested on: MCF7 breast
[19] = tested on: CCRF-CEM leukemia

CCN(CC)CCCC(C)Nc1cnc(C(=O)Nc2cc(F)cc3cccnc23)cn1 (stereo not drawn)
TGI [1]: 26.6 µM [sample A, 1 test] and 1.94 µM [sample B, mean of 2 tests]
TGI [2]: 13.2 µM [sample A, 1 test] and 1.3 µM [sample B, mean of 2 tests]
TGI [3]: 7.58 µM [sample A, 1 test] and > 100 µM [sample B, mean of 2 tests]

O=[N+]([O-])c1cccc2nc3ccccc3c(NCCNCCO)c12
TGI [4]: 6.55 nM and 103 nM
TGI [5]: 315 nM and 10.4 µM
TGI [6]: 26.2 nM and 421 nM
TGI [3]: 159 nM and > 100 µM
TGI [7]: 12.7 nM and 12.4 µM
TGI [8]: 582 nM and 41 nM
TGI [9]: 1.04 µM and 69.4 nM

CCOC(=O)C(Cc1c[nH]c2cc([N+](=O)[O-])ccc12)(NC(C)=O)C(=O)OCC
GI50 [10]: 23.8 µM [1 test] and > 1 mM [mean of 2 tests]
TGI [11]: 21.7 µM [1 test] and > 1 mM [mean of 2 tests]
GI50 [12]: 63.7 µM [1 test] and > 741 µM [mean of 2 tests]
GI50 [13]: 59.6 µM and > 1 mM
GI50 [14]: 58.9 µM [1 test] and > 1 mM [mean of 2 tests]
GI50 [15]: 27.8 µM [1 test] and > 1 mM [mean of 2 tests]
GI50 [16]: 93.3 µM [1 test] and > 1 mM [mean of 2 tests]
GI50 [17]: 11.1 µM [1 test] and > 1 mM [mean of 2 tests]
TGI [17]: 37.9 µM [1 test] and > 1 mM [mean of 2 tests]
GI50 [18]: 38.2 µM [1 test] and > 1 mM [mean of 2 tests]
GI50 [19]: 17.8 µM [1 test] and > 1 mM [mean of 2 tests]
TGI [19]: 83 µM [1 test] and > 1 mM [mean of 2 tests]

Cc1c(CN2CCC(Nc3ncnc4sc(CC(F)(F)F)cc34)CC2)ccc2c1cc(C#N)n2Cc1cn[nH]c1
TGI [10]: 4.68 µM [sample A, 1 test] and > 100 µM [sample B, 1 test]
